First the molecules themselves.
T1: UNK ZnF1-3 (human, UniProt Q9C0B0 31-174)
T1 sequence: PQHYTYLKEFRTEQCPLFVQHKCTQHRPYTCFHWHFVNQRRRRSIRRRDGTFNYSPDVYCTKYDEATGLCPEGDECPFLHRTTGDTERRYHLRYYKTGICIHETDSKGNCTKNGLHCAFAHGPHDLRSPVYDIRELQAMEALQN

B1: chr16:15155627:15155628:-_ENSG00000085721_ENST00000198767|hu_mus|FALSE|FALSE (ssRNA)
RNA: GGGAGUUCUACAGUCCGACGAUCUUGCGCAGCUCAAUCAUAGAUCCUUGUGAGGAGUGGAGACUGGCCUGGUAUAUACAGCACAGGAGGGGAGCCCACACUACUGGAAGGACUUUGGAAGUGGGUAUCAAAGGAGCUCGGAGUCAACAGAGGAUUGAGCAUCA
B2: 160217689_160217809_4014_3pUTR_ENSG00000186432_ENST00000334256|human|control|control (ssRNA)
RNA: GGGAGUUCUACAGUCCGACGAUCAGUUGUCUCGGUCUGUUUUACUGGAGAAUGAAGGAAAGUUAAAACCUUGCUUUGGAUAGAGAGAAAACUGAAGCACUGAUGGUGUCAACUGGACAAACUCAGUGGGCUAAAAUAUUAAUACAACAGAGGAUUGAGCAUCA
B3: chr14:62207507:62207508:+_ENSG00000100644_ENST00000337138|hu_hu|FALSE|FALSE (ssRNA)
RNA: GGGAGUUCUACAGUCCGACGAUCUGACAACUGAUCGAAGGAACGUAACUGGAAGUCAUCAUCCAUUGGGAUAUAGGGAGCUAACAUCUCCAAGUCUAAAUCUGUGUCCUGAGUAGAAAAUGGGUUCUUUGCUUCUGUGUCUUCCAACAGAGGAUUGAGCAUCA
B4: 154942573_154942693_590_CDS_ENSG00000160691_ENST00000448116|human|control|control (ssRNA)
RNA: GGGAGUUCUACAGUCCGACGAUCCUUAUUGACAAAGCUCCCGUGGCGGGUCCACUCCUCGCCCCCAAGCUGGCCCCCUUCCACCCGAGUCCUGCGCCCGCCGCCUCCACUCAGCUUGUUCAUGUCCUGGAGGAGGGGUAGGGGCAACAGAGGAUUGAGCAUCA
B5: chr7:99056824:99056825:-_ENSG00000241468_ENST00000394186|hu_hu|FALSE|FALSE (ssRNA)
RNA: GGGAGUUCUACAGUCCGACGAUCUCAGUGGUAUUUGCGGAGCCGCUCGUGCUUGAGAUGCUUGUAGGAAAAGGAGUAGCUAAAGAGCACGUAGCAUGCCAGCACCAUGGUAAUCCCCGAGAUGCUCCCCUUCUUCACAUUGAUCAACAGAGGAUUGAGCAUCA
B6: chr5:50689391:50689392:+_ENSG00000016082_ENST00000230658|hu_mus|FALSE|FALSE (ssRNA)
RNA: GGGAGUUCUACAGUCCGACGAUCAAUAGGACUGGCUACCAUGCUGUUGGGUGUAUCUGGGAGCUGCGAGGACAUCGAUGCUACUUCACUGCCAGUAGAAUUAGAGCCUGGUCCUCCUUCUGAAAAAUUGACCAGUUGCUGAAACAACAGAGGAUUGAGCAUCA
B7: chr1:74670475:74670476:+_ENSG00000254685_ENST00000370898|hu_mus|FALSE|FALSE (ssRNA)
RNA: GGGAGUUCUACAGUCCGACGAUCGUUCUGUUGACCAAAGCUUCGUUGUCUAUGCACAGCAUUAAAGCGGUGCAUGUUUUCAAUGGUGGGCUUGUGGAGGAAUUGGUAGCAUUGCCUGUACUCAAGGUCACCAUGUUGUAAGGACAACAGAGGAUUGAGCAUCA
B8: chr21:34924380:34924381:+_ENSG00000159140_ENST00000381679|hu_hu|motif|central (ssRNA)
RNA: GGGAGUUCUACAGUCCGACGAUCUCUAGGUGACAUCCUAUAGGGAUCAGGAGUUAGUCUGUAGGGAUCAUGGCCGGAUCGGUAAGGGUCUUGUCCUAACCUGUAAGCAUCAUGACCUAAUCUAUAGGGGUCAUGGCCCAACCUCAACAGAGGAUUGAGCAUCA
B9: chr16:4561903:4561904:-_ENSG00000089486_ENST00000567695|hu_mus|FALSE|FALSE (ssRNA)
RNA: GGGAGUUCUACAGUCCGACGAUCUCUGCACACUGACUGACUCAAAGAAGCUAGGUAAGAACAGGGGCAAGUUCUUCUCGGUUACCAGAGCUUUAAAUAGCCCAGGAUCCUCUUUGCUUCAUACCAGGCAGCUCUUGAGUGUUUCAACAGAGGAUUGAGCAUCA
B10: 99631505_99631625_1671_CDS_ENSG00000106261_ENST00000324306|human|control|control (ssRNA)
RNA: GGGAGUUCUACAGUCCGACGAUCGUUGAAAGCUUUUCCACAUUCACUACAUUCAUAGGGUUUCUCCCCCGUGUGAAUUCUCUGAUGCUUGGUGAGGUCCGAGCUCUGGCUGAAGGCCUUCCCGCACUCAUUACAUUCAUAAGGCAACAGAGGAUUGAGCAUCA
B11: 33731719_33735661_2417_CDS_ENSMUSG00000075254_ENSMUST00000152782|mouse|control|control (ssRNA)
RNA: GGGAGUUCUACAGUCCGACGAUCCUUCUUUAACUUAAACUCGGUCACAAAGGUUCUAACCAGAUUGCAUAUUCCUUUCUCCAACUGAUACCCGACUGGGCAUCUGCAGGUGAACGAUCCCUGAGUAUUGUUGCACGUGGCUAGCAACAGAGGAUUGAGCAUCA
B12: chr6:33248723:33248724:-_ENSG00000227057_ENST00000374617|hu_hu|FALSE|FALSE (ssRNA)
RNA: GGGAGUUCUACAGUCCGACGAUCUGCUCCAUGGGGCAGGGUCCGAGUGCUCAGAGGCUGGUACGUCCCUCGCAAGUCAAAGAUCUUCAGCUGGUGGUCUAGGCCAGAGGUGGCCAUGUACGUGCCUGUAGAAUCUACUGCCACCAACAGAGGAUUGAGCAUCA
B13: chr5:140076784:140076785:+_ENSG00000112855_ENST00000230771|hu_mus|FALSE|FALSE (ssRNA)
RNA: GGGAGUUCUACAGUCCGACGAUCUCCAGCCUGAGCUGGAGACUCUAGCAGUACUGCUUCAUAAAUCACUCCAGUAUAAUAGUCCAGGCCCCGGGCCAGACUCAGAUCAAGGGAGAUCUUAUCAGCAAUUCCAAAUAACCUCAGCAACAGAGGAUUGAGCAUCA
B14: chr8:104447970:104447971:+_ENSG00000164934_ENST00000297579|hu_hu|hu_hu_hu_mus_False|48_78 (ssRNA)
RNA: GGGAGUUCUACAGUCCGACGAUCAUACACUUCCCUGCUUCGGCUCUUGUCCACAGGAAAGAUUCGAAUAGACUUAUCAAAGCUGGCAGACACAAACUCCUUCCCAGUGGGAGAGUAGUCCACAUCAAGUACUGCAGACACGUGCAACAGAGGAUUGAGCAUCA

The other results are listed elsewhere or left out.

The assay deals with T1, UNK ZnF1-3. The assay can be described thus: nsRBNS (natural sequence RNA bind-n-seq); RBNS binding buffer (assumed for nsRBNS): 25 mM Tris pH 7.5, 150 mM KCl, 3 mM MgCl2, 0.01% Triton X-100, 500 ug/ml BSA, 20 U/ml SUPERase-In, 4 C; UNK is unkempt and MSI1 is Musashi-1; names of the RNAs are library labels; protein concentration not given here; high values mean tight binding.
Regarding B1, the binding signal came out at 1.34 enrichment R. In the case of B2, the binding signal stood at 1.53 enrichment R.

B3 registered a binding signal of 1.31 enrichment R. B4: the binding signal amounted to 1.06 enrichment R.

Molecule B5 came in with a binding signal of 1 enrichment R. The result for B6 reads 1.48 enrichment R.

As for B7, the binding signal was determined as 0.933 enrichment R.

B8 yielded a binding signal of 0.614 enrichment R. In turn, B9 had a binding signal of 1.17 enrichment R.

B10 gave a binding signal of 0.485 enrichment R.

B11 gave a binding signal of 0.715 enrichment R.

Molecule B12 came in with a binding signal of 1.32 enrichment R.

For the molecule B13, the binding signal worked out at 0.71 enrichment R.

Take B14: the binding signal was 0.993 enrichment R.

(Values after paper PMC12136788.)
